# The list shows a part of the results.
# B1: GALT1 115 D492A (Arabidopsis thaliana), Q8L7F9 (protein)
# chain: DPMRGSHHHHHHGMASMTGGQQMGRDLYDDDDKSRLQKPYITAAASVVVTPNTTLPMEWLRITLPDFMKEARNTQEAISGDDIAVVSGLFVEQNVSKEEREPLLTWNRLESLVDNAQSLVNGVDAIKEAGIVWESLVSAVEAKKLVDVNENQTRKGKEELCPQFLSKMNATEADGSSLKLQIPCGLTQGSSITVIGIPDGLVGSFRIDLTGQPLPGEPDPPIIVHYNVRLLGDKSTEDPVIVQNSWTASQDWGAEERCPKFDPDMNKKVDDLDECNKMVGGEINRTSSTSLQSNTSRGVPVAREASKHEKYFPFKQGFLSVATLRVGTEGMQMTVDGKHITSFAFRDTLEPWLVSEIRITGDFRLISILASGLPTSEESEHVVDLEALKSPTLSPLRPLDLVIGVFSTANNFKRRMAVRRTWMQYDDVRSGRVAVRFFVGLHKSPLVNLELWNEARTYGDVQLMPFVDYYSLISWKTLAICIFGTEVDSAKFIMKTDDAAFVRVDEVLLSLSMTNNTRGLIYGLINSDSQPIRNPDSKWYISYEEWPEEKYPPWAHGPGYIVSRDIAESVGKLFKEGNLKMFKLEDVAMGIWIAELTKHGLEPHYENDGRIISDGCKDGYVVAHYQSPAEMTCLWRKYQETKRSLCCREW
# Assays:
# Test in all cases: glycan array binding signal (z-score within array); higher = stronger binding
# Conditions in all cases: glycan notation: IUPAC condensed, linker removed
# Fuc(a1-2)Gal = target: Fuc(a1-2)Gal
# In short: (§1)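 Glycan array binding is given as a within-array Z-score, which can be read as non-binding when negative. The arrays, 3228 of them, came from the Consortium for Functional Glycomics database and were retained only where the protein sequence was available. Z-scores were averaged across arrays of the same protein sequence at different concentrations or buffers and across linkers.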
# Fuc(a1-2)Gal(b1-3)GalNAc = target: Fuc(a1-2)Gal(b1-3)GalNAc
# In short: as §1
# [1] = target: Fuc(a1-2)Gal(b1-3)GalNAc(b1-3)Gal
# In short: as §1
# [2] = target: Fuc(a1-2)Gal(b1-3)GalNAc(b1-3)Gal(a1-4)Gal(b1-4)Glc
# In short: as §1
# [3] = target: Fuc(a1-2)Gal(b1-3)GalNAc(b1-4)[Neu5Ac(a2-3)]Gal(b1-4)Glc
# In short: as §1
# Fuc(a1-2)Gal(b1-3)GlcNAc = target: Fuc(a1-2)Gal(b1-3)GlcNAc
# In short: as §1
# [4] = target: Fuc(a1-2)Gal(b1-3)GlcNAc(b1-2)Man(a1-3)[Fuc(a1-2)Gal(b1-3)GlcNAc(b1-2)Man(a1-6)]Man(b1-4)GlcNAc(b1-4)GlcNAc
# In short: as §1
# [5] = target: Fuc(a1-2)Gal(b1-3)GlcNAc(b1-3)Gal(b1-4)Glc
# In short: as §1
# [6] = target: Fuc(a1-2)Gal(b1-3)GlcNAc(b1-3)[Gal(b1-4)[Fuc(a1-3)]GlcNAc(b1-6)]Gal(b1-4)Glc
# In short: as §1
# [7] = target: Fuc(a1-2)Gal(b1-3)[Fuc(a1-4)]GlcNAc
# In short: as §1
# [8] = target: Fuc(a1-2)Gal(b1-3)[Fuc(a1-4)]GlcNAc(b1-2)Man(a1-3)[Fuc(a1-2)Gal(b1-3)[Fuc(a1-4)]GlcNAc(b1-2)Man(a1-6)]Man(b1-4)GlcNAc(b1-4)GlcNAc
# In short: as §1
# Fuc(a1-2)Gal(b1-4)Glc = target: Fuc(a1-2)Gal(b1-4)Glc
# In short: as §1
# Fuc(a1-2)Gal(b1-4)Glc6S = target: Fuc(a1-2)Gal(b1-4)Glc6S
# In short: as §1
# Fuc(a1-2)Gal(b1-4)GlcNAc = target: Fuc(a1-2)Gal(b1-4)GlcNAc
# In short: as §1
# [9] = target: Fuc(a1-2)Gal(b1-4)GlcNAc(b1-2)Man(a1-3)[Fuc(a1-2)Gal(b1-4)GlcNAc(b1-2)Man(a1-6)]Man(b1-4)GlcNAc(b1-4)GlcNAc
# In short: as §1
# [10] = target: Fuc(a1-2)Gal(b1-4)GlcNAc(b1-3)Gal(b1-4)GlcNAc
# In short: as §1
# [11] = target: Fuc(a1-2)Gal(b1-4)GlcNAc(b1-3)Gal(b1-4)GlcNAc(b1-3)Gal(b1-4)GlcNAc
# In short: as §1
# [12] = target: Fuc(a1-2)Gal(b1-4)GlcNAc6S
# In short: as §1
# [13] = target: Fuc(a1-2)Gal(b1-4)[Fuc(a1-3)]GlcNAc
# In short: as §1
# [14] = target: Fuc(a1-2)Gal(b1-4)[Fuc(a1-3)]GlcNAc(b1-2)Man(a1-3)[Fuc(a1-2)Gal(b1-4)[Fuc(a1-3)]GlcNAc(b1-2)Man(a1-6)]Man(b1-4)GlcNAc(b1-4)GlcNAc
# In short: as §1
# [15] = target: Fuc(a1-2)Gal(b1-4)[Fuc(a1-3)]GlcNAc(b1-3)Gal(b1-4)[Fuc(a1-3)]GlcNAc
# In short: as §1
# [16] = target: Fuc(a1-2)Gal(b1-4)[Fuc(a1-3)]GlcNAc(b1-3)Gal(b1-4)[Fuc(a1-3)]GlcNAc(b1-3)Gal(b1-4)[Fuc(a1-3)]GlcNAc
# In short: as §1
# Fuc(a1-2)Gal6S(b1-4)Glc = target: Fuc(a1-2)Gal6S(b1-4)Glc
# In short: as §1
# [17] = target: Fuc(a1-2)Gal6S(b1-4)Glc6S
# In short: as §1
# [18] = target: Fuc(a1-2)Gal6S(b1-4)GlcNAc
# In short: as §1
# Fuc(a1-2)[Gal(a1-3)]Gal = target: Fuc(a1-2)[Gal(a1-3)]Gal
# In short: as §1
# [19] = target: Fuc(a1-2)[Gal(a1-3)]Gal(b1-3)GlcNAc
# In short: as §1
# [20] = target: Fuc(a1-2)[Gal(a1-3)]Gal(b1-3)GlcNAc(b1-2)Man(a1-3)[Fuc(a1-2)[Gal(a1-3)]Gal(b1-3)GlcNAc(b1-2)Man(a1-6)]Man(b1-4)GlcNAc(b1-4)GlcNAc
# In short: as §1
# [21] = target: Fuc(a1-2)[Gal(a1-3)]Gal(b1-4)Glc
# In short: as §1
# [22] = target: Fuc(a1-2)[Gal(a1-3)]Gal(b1-4)GlcNAc
# In short: as §1
binder,measurement,setting,value
B1,glycan array binding signal (z-score),Fuc(a1-2)Gal,-0.208
same,glycan array binding signal (z-score),Fuc(a1-2)Gal(b1-3)GalNAc,-0.409
same,glycan array binding signal (z-score),[1],1.79
same,glycan array binding signal (z-score),[2],0.257
same,glycan array binding signal (z-score),[3],-0.145
same,glycan array binding signal (z-score),Fuc(a1-2)Gal(b1-3)GlcNAc,0.211
same,glycan array binding signal (z-score),[4],-0.264
same,glycan array binding signal (z-score),[5],-0.108
same,glycan array binding signal (z-score),[6],-0.105
same,glycan array binding signal (z-score),[7],-0.125
same,glycan array binding signal (z-score),[8],0.146
same,glycan array binding signal (z-score),Fuc(a1-2)Gal(b1-4)Glc,0.174
same,glycan array binding signal (z-score),Fuc(a1-2)Gal(b1-4)Glc6S,-0.383
same,glycan array binding signal (z-score),Fuc(a1-2)Gal(b1-4)GlcNAc,-0.291
same,glycan array binding signal (z-score),[9],0.318
same,glycan array binding signal (z-score),[10],-0.512
same,glycan array binding signal (z-score),[11],6.73
same,glycan array binding signal (z-score),[12],-0.411
same,glycan array binding signal (z-score),[13],8.05
same,glycan array binding signal (z-score),[14],0.558
same,glycan array binding signal (z-score),[15],-0.068
same,glycan array binding signal (z-score),[16],1.49
same,glycan array binding signal (z-score),Fuc(a1-2)Gal6S(b1-4)Glc,-0.076
same,glycan array binding signal (z-score),[17],-0.103
same,glycan array binding signal (z-score),[18],0.416
same,glycan array binding signal (z-score),Fuc(a1-2)[Gal(a1-3)]Gal,-0.217
same,glycan array binding signal (z-score),[19],-0.352
same,glycan array binding signal (z-score),[20],-0.187
same,glycan array binding signal (z-score),[21],-0.456
same,glycan array binding signal (z-score),[22],-0.399

# From the supplement of paper PMC8728848
